Data on 56 variants can be found in the RNAGym collection of RNA variant scans (doi:10.7554/elife.90254).

The labels stand for the following.
B1: LINE1-mini (parent)
chain: GGCAGAGCUCAACACAGCGUGGCAAAGUGGCUGUGGCUAGACUGCC

The source gives no read counts; variants with many changes may rest on few reads.

The data set covers variants of B1. In words: self-cleavage, relative activity (ratio to wild type); higher = more cleavage; in vitro, sequencing; the parent is a self-cleaving ribozyme.
Consider GACAGAGCUCAGCACAGCGUGGCAAUGUGGCUGUGGCUAUACAGUC [G2A A12G A26U G40U U43A C45U], for which the self-cleavage was determined as 0.03. In the case of GACAGAGCUCUACACAGCGUGGCAAAGUGGCUGUGGCUACACUGCC [G2A A11U G40C] it was 0.06. Then GACAGUGCACAACACAGUGUGGCAAAGUGGCUGUGGCUAGACUGCC [G2A A6U U9A C18U], with 0.03; and UGCAGAGCUCAACACAGCGAGGAAAAGUGGCUGUGGCUAGCGUGCG [G1U U20A C23A A41C C42G C46G], with 0.03. Then GACUGCGCUCAACAUAGCGUGGCAAAGUGGCUGUGCCUAGACUGCC [G2A A4U A6C C15U G36C], with 0.1. With GACAGAGCUCAUCAGAGCGUGGCAAAGUGGCUGUGGCUGGACUGCC [G2A A12U C15G A39G], the self-cleavage came to 0.04. For the variant GACUGAGCUGAACACAGCGUGGCAAAGUGGCUGUGUCUAGACUGUC [G2A A4U C10G G36U C45U], the self-cleavage was determined as 0.02. In the case of GACAGAGCUCCACACAGCGUGGCAACGACGCUGUGGAUAGACAGCC [G2A A11C A26C U28A G29C C37A U43A] it was 0. As for UGCAGAGCCCAACACAGCGUGGCAAAGUGGCUGUGGCUCGAUUGCC [G1U U9C A39C C42U], the self-cleavage was found to be 0.01. In the case of GACAGUGCUCAACAAAGCGUGCCAAAGUGGCUGUGGGUAGACUGCC [G2A A6U C15A G22C C37G], the self-cleavage worked out at 0.09. In the case of GACAGAGCUCAGCACGGCGUGGCAAAGUGGCUGUGGGUAGACUGCC [G2A A12G A16G C37G] it was 0.18; in that of GACAGAGCUCCUAAUAGCGUGGAAAAGUUGGUGUGGCUAGACUGCC [G2A A11C A12U C13A C15U C23A G29U C31G], 0.01; in that of GACAGCGCUCAACACGGCGUGGCCAAGUGGCUGUGGCUAGACUGCC [G2A A6C A16G A24C], 0.15.

In the case of GACAGAGCUCUACACAGCCUGGCAAAGUGGCUGUGGCUAGACUGCC [G2A A11U G19C], the self-cleavage was determined as 0.05. Take UGCAGAGCCCAACACAGAGUGGCAAAGUGGCUGGGACUAGACUGCC [G1U U9C C18A U34G G36A]: the self-cleavage was found to be 0.01. Then GACAGAGCUCAACACAGCGUGGCCACGUGGCUGUGGCUAGACUGCC [G2A A24C A26C], with 0.3; and GACAGAGCUCGAAACAGCGUGCCAAAGUGGCUGUGGCUAGACUGCC [G2A A11G C13A G22C], with 0.02. In the case of UGCAGAGCCCAACACGGCGUGGCAAAGUGGCUGUGGCUAGGCUGCC [G1U U9C A16G A41G] it was 0; in that of UGCAGAGCUCAACACAGCGUGGCAAAGUGGCUGUGGCCAUACUGCC [G1U U38C G40U], 0.07; in that of GACUGAGCUCAACAGAGCGUGGCAAAGUGGCUGUGGCUAGACUGCC [G2A A4U C15G], 0.02.

On to GACAGCGCUCAACAAAGCGUGGCAAAGUGGCAGUGGCUAGACUGAC [G2A A6C C15A U32A C45A], for which the self-cleavage was 0.03. Then GACUGAGCUCAACACAGCGUGGCAAAGUGGCUAUGGCUAGAGCGCC [G2A A4U G33A C42G U43C], with 0.04; and UGCAGAGCUCAACACAGCGUGGCAAAGUGGCUGUGGCUAGACCGCU [G1U U43C C46U], with 0.07; and UGCAGAGCGUAACACAGCAUGGCAAAGUGGCUGUGUCUAGUCUGCC [G1U U9G C10U G19A G36U A41U], with 0.02. Then GACAGAGCUCAACACUGCGUGACAAAGUGGCUGUGGCUAGAGUGCA [G2A A16U G22A C42G C46A], with 0.17; and UGCAGAGCACAACACAGCGUGGCAAAGUGGUUGUGGCUAGACUGCC [G1U U9A C31U], with 0.01; and GACAGCGCUCAACACAGUGUGGGAUAGCGGCUGUGGCUAGACUGCC [G2A A6C C18U C23G A25U U28C], with 0.11. In the case of GACAGUGCUCAACACAGCGUGGCAAAGUGGCUGAGUCUAGCCUGCC [G2A A6U U34A G36U A41C] it was 0.04. For UGCAGAGCCCAACACAGCGUGGCAAAGUGGCUGUGGCUAGACUUCC [G1U U9C G44U], the self-cleavage was determined as 0.03.

As to UGCAGAGCUCAACACAGCGCGGCAAAGUUGCUGUGGCUAGACUGCC [G1U U20C G29U], the self-cleavage was 0.05. Regarding UGCAGAGCGCAACACAGCGUGGCAAACUGGCUGUGCCUAGACUGCC [G1U U9G G27C G36C], the self-cleavage amounted to 0.23. In the case of UGCAGAGCGCAACACAGCGUGGCAAAGUGGCUGUAGCUAAACUGCC [G1U U9G G35A G40A] it was 0.01.

Consider UGCAGAGCACUACACAGCGUAGCAAUGUGGCUGUGGCUAGACUGCC [G1U U9A A11U G21A A26U], for which the self-cleavage came to 0.03. In the case of GACAGAGCUCAACACAGCGUGGCAACGUGGCUGUGGCUAGAUUGCC [G2A A26C C42U] it was 0.21; in that of GACAGUGCUGAACACAGCGUGGCAAAGCGGCUGUGGCUAGACUACC [G2A A6U C10G U28C G44A], 0.09. In the case of GACUGAGCUCAACCCAACGUGGCAAAGAGGCUGUGGCUAGACUGCC [G2A A4U A14C G17A U28A] it was 0.17.

For the variant GACCGCGCUCAACUCCGCGUGGCAAAGUGGCUGUCGCUAGACUGUC [G2A A4C A6C A14U A16C G35C C45U], the self-cleavage amounted to 0.07.

As to GACAGAGCUCAGGACAGCGCGGCAAAGUGGCUGUGGGUAGACUGGC [G2A A12G C13G U20C C37G C45G], the self-cleavage turned out to be 0.03. Then UGCAGAGCUCAACACAGCGUGGCAAAGUGGCUGAUGCUAGACUGCC [G1U U34A G35U], with 0.02; and GACGGAGCUCAACACAGCGUGGCAAAGUGGCUGUGGCUAGACUGCA [G2A A4G C46A], with 0.24. Take GACAGAGCUCAACGCAGCGUGGCAAAAUGGCUGUGGCUAGACUGCC [G2A A14G G27A]: the self-cleavage is 0.61. In the case of UGCAGAGCUCAACACAGCGGGGCAAAUUGGCUGUGGCUAGACUGCC [G1U U20G G27U] it was 0.07; in that of GACAGAGCUCAACUCUGCGUGGCAAAGUGGCUGUGACUAGACUGCC [G2A A14U A16U G36A], 0.15.

For GACCGAGAUCAACACAGCGUGGCAAUGUGGCUGUGGCUAGACUGCA [G2A A4C C8A A26U C46A], the self-cleavage amounted to 0.68.

For the variant GACUGAGCUCCACACAGCGUGGCUAAGUGGCAGUCGCUAGCCUGCC [G2A A4U A11C A24U U32A G35C A41C], the self-cleavage amounted to 0.02.

For the variant UGCAGAGCACAACACAGCGUCGCAAAGUGGCUGUGGCUAGACUGCC [G1U U9A G21C], the self-cleavage is 0.02.

With GACAGAGCUCAACGGAGCGUGGCAACGUGGCUGUGGCUAGACUGCC [G2A A14G C15G A26C], the self-cleavage stood at 0.08.

On to GACAGAGCUCAGCACAACGUGGAAAAGUGGCUGUGGCUUGACUGCC [G2A A12G G17A C23A A39U], for which the self-cleavage was 0.01. Then UGCAGAGCAAAACAGAGCGUGCCAAAGUGGCUGUGGCUAGACUUCC [G1U U9A C10A C15G G22C G44U], with 0; and UGCAGAGCUCAACACAGCGUGGCAAAGUGGCUGCGGCUAGACUACC [G1U U34C G44A], with 0.02. In the case of UGCAGAGCACAACACAGCGUGGCAAAGUGGCUGUGGCUAGACCGCC [G1U U9A U43C] it was 0.03.

For the variant UGCAGAGCUCAACACAGCGUGGCAAAGUGGCUGUGCCGAGACUGCC [G1U G36C U38G], the self-cleavage was 0. Then UGCAGAGCGCAACAAAGCGUGGCAAAGUGGCUGUUGCUAGACUGGC [G1U U9G C15A G35U C45G], with 0; and GACAGAGCUCAACCCAGCGUGGCCAAGUGGCUGUGGCUAGACUACA [G2A A14C A24C G44A C46A], with 0.05; and GACCGAGUUCAACACAGCCUGGCGAAGUGGCUGUAGGUAGACUGCC [G2A A4C C8U G19C A24G G35A C37G], with 0.31. In the case of GACAGAGCUCAACACAGCGUGGCCAAGUGGCGGUGGCUAGACUGCC [G2A A24C U32G], the self-cleavage came to 0.19.
